We go through 167 variants from the RNAGym collection of RNA variant scans (doi:10.7554/elife.90254).

B1: LINE1-mini (parent)
chain: GGCAGAGCUCAACACAGCGUGGCAAAGUGGCUGUGGCUAGACUGCC

Read counts are not given, so values of variants with three or more changes are uncertain.

In this data set the parent is B1. Briefly: self-cleavage, relative activity (ratio to wild type); higher = more cleavage; in vitro, sequencing; the parent is a self-cleaving ribozyme.
Consider C3G A25U A26C U43A, for which the self-cleavage is 0.21.

In the case of C3G G21A C45G, the self-cleavage worked out at 1.12. Then C3A G21C G27A, with 1.45. On to C3G G7C U20C G30A C31G, for which the self-cleavage stood at 0.01. Then C3A G22A C23A U28A G35U, with 0.42.

Turning to C3G A16U G35U, the self-cleavage amounted to 0.03. With C3G U9C C15G C42G the figure was 0.03; with C3G G7C C15U, 0.06; with C3A G17U C18G G21U, 0.07. Then C3G U20C A39G, with 0.34; and C3A U32A U34G, with 0.07. For the variant C3G G5U C37A U38C G40U, the self-cleavage was 0.02. Then C3G A11C C18G, with 0.05; and C3G A11G C31G, with 0.02.

Consider C3G U34A C37U, for which the self-cleavage was found to be 0.12. Then C3G A12U G19U G27C C37G, with 0.01; and C3G U20A G29A G33C, with 0.09. Then C3G C8U U34G, with 0.23; and C3G G21C A25G G30U G40U, with 0.08; and C3A U9A G29U, with 0.28.

For C3G A4C C10A C23U, the self-cleavage was determined as 0.02. Then C3G C31G G33C A41U, with 0.04. Then C3G C13A A26U G40U, with 0.07; and C3G A11U G29A, with 0.02.

For C3A U20G G21A U34C, the self-cleavage was found to be 0.08.

As for C3U A4C C8A G17U A26U G27C, the self-cleavage worked out at 0.1. As to C3G A4U A14U C15G U34G A39U U43C, the self-cleavage was 0.01. With C3G C13A A24C C45U the figure was 0.06.

Regarding C3G U9G A26C, the self-cleavage worked out at 0.76.

With C3G C13U U34C, the self-cleavage amounted to 0.1. With C3G G7C A39C C46U the figure was 0.17; with C3G A6C G22C C37U, 0.11; with C3G G19C G22A, 0.37. Then C3A G21U U34G, with 0.06; and C3A G7U U20A G36U, with 0.08. Then C3G A11G A24U G40C, with 0.01. For the variant C3G C10G C13G A14U G22C, the self-cleavage stood at 0.02.

As to C3G C18A G30C, the self-cleavage came to 0.2. With C3G U20C G40C G44A the figure was 0.04; with C3A G17C G44U, 1.41. Then C3G U9A A12U C13U A26C G33U G40A, with 0.05. For the variant C3G A25C U32A, the self-cleavage stood at 0.1. Regarding C3G G30U C31G, the self-cleavage amounted to 0.18. Then C3G C13U G35U C46G, with 0.04. Then C3A U9C G21A, with 0.26; and C3G C13A G17C G19A C42G, with 0.01; and C3A U9G U20C G21U A25U U43A, with 0.1. With C3G C8G G27U U34C U38A C45G the figure was 0.03; with C3G G5A G21C G22A G35C, 0.08.

On to C3A U34A A41C, for which the self-cleavage is 0.07. With C3G U9A G17U G19U the figure was 0.04. Then C3G C8G U20C, with 0.01; and C3G G22C C37A, with 0.08; and C3G A6G C8U U9C, with 0.01. With C3G U9G C18A G22A A26G U43C C46A the figure was 0.03; with C3G C13G U20C G22C G36U, 0.03; with C3G C13U A14U C42A C46U, 0.31.

As to C3G A14C G22U G29U, the self-cleavage is 0.04. Then C3G A14U C15A, with 0.07; and C3A G19U U32A, with 0.06; and C3G C23U G44A, with 0.28. With C3G A4C G21A C23A C45A the figure was 0.56. Consider C3G G5U C8A A16U, for which the self-cleavage was 0.37. Take C3G G7A C13U G19A G21A A26G: the self-cleavage was 0.1. With C3G C15G C18A U32C C42A C45G the figure was 0.16. Then C3G G5C A14C A39U, with 0.09. C3A G21U G22U G29A U38G C45U: the self-cleavage came out at 0.03. With C3G G22C C31G G33C G44U C46G the figure was 0.06; with C3G C15A C42A U43G, 0.12; with C3A G21A A25U G27C, 0.59. With C3U A4G C46G the figure was 0.05; with C3G C15G U20G, 0.04; with C3A G19A U34C, 0.27. Then C3G C10A G17C, with 0.09. As to C3U A4G C18U C45U, the self-cleavage worked out at 0.11. Then C3G A26C G40C, with 0.16; and C3G C8U C37A, with 1.02. Then C3G A14G U20C U34G G36A, with 0.06; and C3A U9C U28G G40A, with 0.04; and C3G U32C U34A, with 0.08. With C3G A4U C45A the figure was 0.06; with C3G C8G A16U U28A, 0.06. C3G A4C U9A: the self-cleavage was 0.11.

Regarding C3A G27A G35U G40A, the self-cleavage was 0.16. Then C3G G7A C31U, with 0.13; and C3G A14C G30C C45U, with 0.01; and C3G A4G C8A U9A G17C U20A G29C G30A A41U, with 0.06. With C3A G17U C31A G36C the figure was 0.11. Turning to C3G C8U A11C G19C A24G, the self-cleavage amounted to 0.05. With C3A G22C C23U G33U, the self-cleavage stood at 0.12.

Take C3A U9C C13G C37U: the self-cleavage stood at 0.05.

In the case of C3G A4U A24G, the self-cleavage was determined as 2.33. For the variant C3G G7A C8A U9C A12G U20A A39U, the self-cleavage was 0.12.

With C3A G17A C23G, the self-cleavage came to 0.29. With C3G G17C G36U the figure was 0.13; with C3U A4G A12U, 0.11; with C3G C8G C13U G44U, 0.02. Regarding C3G G5U A6C C23G A26C G44A, the self-cleavage was 0.1.

Turning to C3A U9G C37U, the self-cleavage was found to be 0.6. With C3G C18U C23A U32A C45U the figure was 0.06; with C3G A4G G5A C8U U43C, 0.05.

Turning to C3G G7U A26C G33A, the self-cleavage is 0.08. With C3G G7A G22A G30C C45A the figure was 0.16; with C3G U9G G19A U43G, 0.04; with C3U A4U G7C C10U A14U G22U U38C A39C, 0.11. Take C3G G5U C10A A11G A14C U20C G22A U34C: the self-cleavage stood at 0.01. With C3G G17A G33U U38A the figure was 0; with C3G G7U A24C C31U G44U, 0.03; with C3G C15G G36A C37U G40A C46G, 0.08.

C3G A4G C13A G29U G33C: the self-cleavage was found to be 0.08.

As for C3G G5C G36C, the self-cleavage stood at 0.06. Then C3G A11G G27A C31U, with 0.03; and C3G C13A C23A, with 1.11; and C3U A4G C8U A12G G17A, with 0.05. With C3G C8A C13U A24C G29C the figure was 0.07; with C3G C31U C42A, 0.06; with C3A G17C C18G A24U, 0.11. On to C3A G21U A25U G40A, for which the self-cleavage was determined as 0.21. Then C3A U20C G27A G33U, with 0.14; and C3G A4C G7U A16C G17A C23A, with 0.78. Then C3A U20C A24U, with 0.98; and C3G G7U U34C C46A, with 0.07.

Turning to C3G A4U G5U C15G A26G G29A C45U, the self-cleavage was determined as 0.1.

As to C3G A4U C18G G21U C31A, the self-cleavage amounted to 0.05. Then C3G A11U C13G C23G A25C U34C, with 0.01; and C3A U9A A16C G30C C37U, with 0.55.

On to C3U A4C C37U, for which the self-cleavage came to 0.1. Then C3A U38G G44C, with 0.01. With C3G U9C C15G A16G A41U the figure was 0.02. With C3G G35A C37A the figure was 0.33; with C3G A4C G33C U34A, 0.38. Take C3G C31A A41G: the self-cleavage came out at 0.09. Then C3G A25U U43A, with 0.07; and C3G G7U C42U, with 0.15. Consider C3A U9A A26C U32C, for which the self-cleavage stood at 0.44. For C3A U20A G22C A25U C45G, the self-cleavage turned out to be 0.13. Take C3G C13G G27U C45A: the self-cleavage is 0.12. With C3G A24C G35U C45U the figure was 0.03. With C3G G17C G29A G40C A41C the figure was 0.01; with C3G A12C C15U A16G U34G C42U G44C, 0.01. On to C3G G21C G22C C23U U34G, for which the self-cleavage amounted to 0.09. With C3G A11G A12U G35A A41G the figure was 0. With C3A G30A G35C C42G the figure was 0.08. With C3A G17U G19U U20C the figure was 0.08. On to C3G G7U C23U, for which the self-cleavage was found to be 0.13.

With C3A U9A C23U G30U, the self-cleavage stood at 0.33. Turning to C3G A11G G19U G29U C31G, the self-cleavage stood at 0.01.

Regarding C3G C8A C10G, the self-cleavage turned out to be 0.03. On to C3G G22U G27A, for which the self-cleavage turned out to be 0.36. As to C3G G5A G40C, the self-cleavage amounted to 0.06.

Consider C3G G5A C13G, for which the self-cleavage came to 0.04.

For C3G A6G A26C G40A C42A, the self-cleavage amounted to 0.02. With C3G C18G G30A G35U the figure was 0.09; with C3G G19A A24C, 0.02; with C3G G5U G7A, 0.24. For C3G U20A C31A C37G, the self-cleavage is 0.02. Turning to C3G G21C G29A G30U, the self-cleavage came out at 0.42. On to C3A G19C U43C, for which the self-cleavage was found to be 0.09.

As for C3G A4C G19U A39U, the self-cleavage was 0.1. With C3G A12U A26G U38C the figure was 0.03; with C3G G33U G35A G40U C45G, 0.05; with C3G A6C A26G G36U A41U, 0.03. With C3A G21U C23U C46U the figure was 0.43; with C3G G29U U34C, 0.06. Then C3G G29C U32G, with 0.1.

As for C3A U9G G19C U38A G44U, the self-cleavage came to 0. With C3G C10G U20G G33A the figure was 0.
